Measurements reported in paper PMC4336329 (PLoS ONE, 2015).
About 2,200 (0.71%) of roughly 310,000 compounds showed an effect of 50% or more. Effects have a minus sign here. Some of the results follow.

What follows are compounds tested against human ether-à-go-go-related gene (hERG) potassium channel (human, UniProt Q12809) (assay: primary screen, population patch clamp on CHO cells stably expressing hERG).
human ether-à-go-go-related gene (hERG) potassium channel, sequence (Q12809 whole entry, looked up): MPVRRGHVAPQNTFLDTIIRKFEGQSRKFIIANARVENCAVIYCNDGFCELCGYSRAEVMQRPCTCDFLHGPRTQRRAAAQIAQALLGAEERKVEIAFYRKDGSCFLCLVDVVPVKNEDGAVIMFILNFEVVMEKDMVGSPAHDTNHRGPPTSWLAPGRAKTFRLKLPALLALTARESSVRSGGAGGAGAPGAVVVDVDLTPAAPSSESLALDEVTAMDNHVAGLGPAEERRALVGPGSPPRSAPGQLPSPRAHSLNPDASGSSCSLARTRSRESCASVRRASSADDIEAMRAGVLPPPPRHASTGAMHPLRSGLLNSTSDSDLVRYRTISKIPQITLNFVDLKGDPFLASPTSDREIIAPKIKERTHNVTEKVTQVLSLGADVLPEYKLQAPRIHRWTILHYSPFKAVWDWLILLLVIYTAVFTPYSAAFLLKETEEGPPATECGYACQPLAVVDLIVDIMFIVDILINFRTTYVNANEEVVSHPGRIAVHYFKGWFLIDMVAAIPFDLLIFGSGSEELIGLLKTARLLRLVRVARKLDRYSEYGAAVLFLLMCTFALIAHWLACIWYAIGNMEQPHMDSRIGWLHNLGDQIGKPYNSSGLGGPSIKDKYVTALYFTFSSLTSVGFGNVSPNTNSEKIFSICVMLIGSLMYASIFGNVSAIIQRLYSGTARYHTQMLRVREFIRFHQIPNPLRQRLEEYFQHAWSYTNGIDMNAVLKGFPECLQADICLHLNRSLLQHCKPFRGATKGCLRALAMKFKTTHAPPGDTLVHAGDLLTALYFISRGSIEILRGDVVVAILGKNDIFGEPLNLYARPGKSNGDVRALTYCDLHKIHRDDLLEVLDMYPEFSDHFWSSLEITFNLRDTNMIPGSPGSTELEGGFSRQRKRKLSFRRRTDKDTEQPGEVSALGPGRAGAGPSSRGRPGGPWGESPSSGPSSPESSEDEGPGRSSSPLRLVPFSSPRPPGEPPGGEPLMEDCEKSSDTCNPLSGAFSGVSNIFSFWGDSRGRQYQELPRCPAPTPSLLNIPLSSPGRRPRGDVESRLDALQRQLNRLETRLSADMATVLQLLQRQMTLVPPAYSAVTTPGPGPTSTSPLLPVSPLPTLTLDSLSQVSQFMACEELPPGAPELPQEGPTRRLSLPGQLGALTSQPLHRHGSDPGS

SMILES | hERG current change (%, negative = inhibition) at 1uM
CC1CCCCN1C(=O)Cn1cnc2cc([N+](=O)[O-])ccc2c1=O (centres unmarked) | 11.1%
Cc1cc([N+](=O)[O-])nn1Cc1ccc(C(=O)N/N=C/c2ccc(O)cc2O)cc1 | 8.48%
CCCCCC(=O)Nc1cccc(C2=NOC3(C2)C[C@H](C(N)=O)N(C(=O)CCCCC)C3)c1 (some centres unmarked) | -41.9%
O=C(/C=C\c1cn(-c2ccccc2)nc1-c1cccs1)N1CCOCC1 | 4.61%
Fc1ccccc1/C=N/n1c(COc2ccccc2)n[nH]c1=S | 6.92%
COc1ccc(CCNCC(O)COc2cccc(Br)c2)cc1OC (centres unmarked) | -39.5%
CC(=O)N1CCN(c2ccc(NC(=O)c3ccccc3)cc2)CC1 | 4.75%
COCc1nnc(NC(=O)c2cc(Cl)ccc2OC)s1 | 4.12%
CCN(CC)CCn1c(-c2ccc(C)cc2)nc(=S)c2c1CC(C)(C)OC2 | 13.2%
O=C1CCCc2c1cc(C(=O)Nc1ccc(Cl)cn1)c(=O)n2-c1ccccc1 | 2.75%
CCOC(=O)CCCNC(=O)COC(=O)[C@@H]1CCCN1S(=O)(=O)c1ccc(Cl)cc1 | 13.3%
COc1ccc(OC)c(C2=NOC(C(=O)Nc3cc(C)nn3-c3ccccc3)C2)c1 (centres unmarked) | 11.3%
CC(=O)N1CCN(c2ccccc2NC(=S)NC(=O)c2cc3ccccc3o2)CC1 | 16.7%
O=C(C1CCCCC1)N1CCN(C(=O)C2CCCCC2)CC1 | -2.29%
CC(=O)n1cc(N(C(=O)CCl)c2ccc(Cl)cc2)c2ccccc21 | 13.9%
CCc1ccc(N2CC(C(=O)N3CCCCCC3)CC2=O)cc1 (centres unmarked) | 7.72%
O=C(NCCc1ccccc1)C(=O)Nc1ccc2c(c1)OCCO2 | 17%
Cc1ccc(CC2C(=O)N(c3ccc(F)cc3)C(=O)C2C)cc1 (centres unmarked) | 12%
Cc1cc(C(=O)NC2CCC(C)CC2)c(C)o1 (centres unmarked) | 7.39%
COc1ccc(Cc2c(O)nc(SCC(C)C)[nH]c2=O)cc1 | 15.2%
CC(C)c1ccc(NS(=O)(=O)c2ccc(-n3cccn3)cc2)cc1 | 11.7%
Fc1ccc(NC(=S)NCCc2ccccc2)c(F)c1F | 9.26%
CCn1c(C)nc2cc(S(=O)(=O)C(F)(F)F)ccc21 | 8.5%

SMILES | hERG current change (%, negative = inhibition) at 1uM
CCc1ccccc1-n1c(SCC(=O)NC)nnc1-c1ccco1 | -1.04%
CCc1cc(=O)oc2c3c(cc(OCC(=O)NCCCCCC(=O)O)c12)OC(C)(C)CC3 | 10.8%
Cc1cccc(NC(=O)c2cc(NC(=O)c3ccco3)ccc2Cl)n1 | 0.516%
CCS(=O)(=O)N1Cc2ccccc2CC1C(=O)NCCc1c[nH]c2ccccc12 (centres unmarked) | 11.2%
c1coc(CSSCc2ccco2)c1 | 12.7%
CCC(=O)NCCCCNC(=O)CC | 19%
CN(CCC#N)C(=O)COC(=O)c1nn(-c2ccccc2)c(=O)c2ccccc12 | 16.2%
Cc1cc(C(F)F)n2ncc(C(=O)NCc3ccc(F)cc3)c2n1 | 3.64%
COc1cccc(C2=NNC(=NCc3ccccc3)SC2)c1 | -33.8%
O=C(NC1CCCCC1)C(c1ccc(F)cc1)N(C(=O)Cc1ccsc1)c1ccc(F)cc1 (centres unmarked) | 1.07%
CCOc1cc(C)c(Cl)cc1S(=O)(=O)NCc1ccc2c(c1)OCO2 | 3.68%
Cc1c(C(=O)N/N=C/c2cccs2)nc2ccccn12 | 12.4%
COc1ccc(NC(=O)C2CCC(CNc3c(N4CCC(C)CC4)c(=O)c3=O)CC2)cc1OC (centres unmarked) | 25.4%
O=C(N/N=C/c1cccs1)c1cc(-c2cccc3ccccc23)n[nH]1 | 10%
Cc1nn(-c2ccccc2)nc1CNS(C)(=O)=O | 7.31%
COc1cc(NC(=O)c2ccc(F)cc2)ccc1NC(=O)c1cc2ccccc2o1 | 14%
CCCNc1sc(S(=O)(=O)CCC)nc1S(=O)(=O)c1ccc(C)cc1 | 2.89%
CCOc1ccc(CNS(=O)(=O)c2cc(-c3cc(C)no3)ccc2OC)cc1OC | 4.24%
Clc1ccc2nc(C3CCN(Cc4nnnn4C4CCCCC4)CC3)[nH]c2c1 | -16.2%
O=C(O)CC(c1cccc([N+](=O)[O-])c1)N1Cc2ccccc2C1=O (centres unmarked) | 9.88%
CC(C)CC(=O)Nc1ccc(-c2nnn(CC(=O)NCc3ccco3)n2)cc1 | 11.3%
O=C(c1ccccc1)C(Nc1ccccn1)c1ccccc1 (centres unmarked) | 6.7%
CCCCOc1ccc(NC(=O)C2CC=CCC2C(=O)O)cc1 (centres unmarked) | 14.3%

SMILES | hERG current change (%, negative = inhibition) at 1uM
COc1ccc2c(=O)c(N3C(=O)c4ccccc4C3=O)coc2c1 | 5.81%
Cc1nc(SCC(=O)NCc2ccccc2)c2oc3ccccc3c2n1 | -3.38%
S=C(NC1CCCCC1)NN(c1ccccc1)c1ccccc1 | 7.06%
CCCCN(CC)CCNC(=O)CCNC(=O)Cn1ccc2ccccc2c1=O | 13.5%
O=C(COc1ccc2c(-c3ccccc3)cc(=O)oc2c1)NCCCN1CCOCC1 | 6.88%
O=C1OCCC1Sc1nnc(-c2cccs2)n1Cc1ccccc1 (centres unmarked) | -4.67%
O=C(Cc1cccs1)N1CCCC(c2nc(-c3ccc(S(=O)(=O)N4CCCC4)cc3)no2)C1 (centres unmarked) | -5.87%
CCOC(=O)C1=C(C)N=c2s/c(=C\c3ccc(OC(C)=O)cc3)c(=O)n2C1/C=C/c1ccccc1 (centres unmarked) | 9.01%
CCOC(=O)c1c(NC(C)=O)sc2c(OC)c(Br)ccc12 | 5.49%
COc1ccc(OC)c(S(=O)(=O)Nc2cccc3c(O)cccc23)c1 | 12.9%
Fc1ccc(-c2csc3ncnc(N4CCN(Cc5ccccc5)CC4)c23)cc1 | 11.9%
CCCCc1nnc(NC(=O)CCS(=O)(=O)c2ccc(Cl)cc2)s1 | -3.33%
Cc1c(Cl)cnc(NC(=O)CSc2nnc(C)n2Cc2ccccc2)c1Cl | 0.368%
Cc1ccc(SC(c2ccccc2)C(Cn2cncn2)C(=O)c2ccccc2)cc1 (centres unmarked) | 14.3%
CCCNC(=O)c1cc(-c2ccc(OC)cc2)n(CCCOC)c1C | 9.94%
O=C(CSc1nnc(CNC(=O)c2ccccc2F)o1)Nc1ccc2c(c1)OCCO2 | 11.3%
CC(=O)Nc1ccc(NC(=O)c2cccc3ccccc23)cc1 | 6.38%
c1ccc(N2CCN(Cc3ccc4c(c3)OCO4)CC2)nc1 | 11.6%
COc1ccc(SC[C@H](C)CN2CC[C@H](C)CCC2=O)cc1 | 9.24%
CCCC(=O)NC(=S)Nc1ccccc1C(=O)OC | 12.4%
Cc1ccccc1-c1nc(CS(=O)CC(=O)NC2CCCC2)c(C)o1 (centres unmarked) | 17.1%
COc1cc(/C=C2\C(=N)N3N=C(S(C)(=O)=O)SC3=NC2=O)ccc1OC(=O)c1cccs1 | -0.945%
O=C(COC(=O)CSc1nnc(-c2ccc(Cl)cc2)o1)NCc1ccc2c(c1)OCO2 | 4.3%

SMILES | hERG current change (%, negative = inhibition) at 1uM
CCC(NC(=S)NCc1ccc(F)cc1)c1ccccc1 (centres unmarked) | 5.49%
Cc1ccc(NC(=O)CCNS(=O)(=O)c2ccccc2F)cc1S(=O)(=O)N1CCOCC1 | -4.28%
Cc1c(-c2ccccc2)[n+](=O)c2c(n1[O-])CCCC2 | 11.5%
Oc1ccc(CNc2ccccc2O)cc1 | 1.86%
CC(=O)Nc1cccc(C(=O)NC2CCCc3c2cnn3-c2cc(C)cc(C)c2)c1 (centres unmarked) | 12.3%
Cc1cccc(C(=O)Nc2ccccc2C(=O)NCc2cccnc2)c1 | 1.78%
CCOc1ccc(NC(=O)Nc2cc(-c3ccccc3)sc2C(=O)OC)cc1 | 0.713%
O=C(NC1=NCCS1)C1CC2CCC1C2 (centres unmarked) | 4.15%
CC(OC(=O)c1ccc(-c2ccc([N+](=O)[O-])cc2)o1)C(=O)NC(N)=O (centres unmarked) | -1.94%
CC(C)Cc1nnc(NC(=O)CCc2ccccc2)s1 | 11.3%
Cc1cc(C)c(C#N)c(SCC(=O)Nc2nnc(-c3ccccc3)s2)n1 | 12%
COc1ccc(CCNC(=O)CCc2ccc(S(=O)(=O)NCC(C)C)cc2)cc1 | 13%
Nc1nnn(Cc2ccccc2)n1 | 14%
Cc1nnc(NC(=O)COc2ccc3c(C)cc(=O)oc3c2)s1 | 4.06%
O=C(c1cc(-c2ccccc2O)on1)N1CCc2ccccc2C1 | 9.27%
CCN(CC)S(=O)(=O)c1ccc(S(=O)(=O)N2CCN(C(=O)c3ccco3)CC2)cc1 | 7.66%
Br.O=C(CN1C2=NCCN2c2ccccc21)c1cccs1 | 6.89%
CCN(CC)CCNC(=O)CCn1nc(-c2ccc(Cl)cc2)ccc1=O | 12%
O=c1[nH]c(=S)[nH]c(O)c1/C=N/N1CCOCC1 | 12.6%
Cc1nc2cc(C(=O)OCC(=O)NC34CC5CC(CC(C5)C3)C4)ccc2n1-c1ccccc1 | 9.35%
